Some of the results follow. Sequences were assembled here from the parent chain. Inactive controls read about 0.05.
B1: TEV protease; numbered along this chain (parent)
chain: MGESLFKGPRDYNPISSSICHLTNESDGHTTSLYGIGFGPFIITNKHLFRRNNGTLVVQSLHGVFKVKDTTTLQQHLVDGRDMIIIRMPKDFPPFPQKLKFREPQREERICLVTTNFQTKSMSSMVSDTSCTFPSGDGIFWKHWIQTKDGQCGSPLVSTRDGFIVGIHSASNFTNTNNYFTSVPKNFMELLTNQEAQQWVSGWRLNADSVLWGGHKVFMVKPEEPFQPVKEATQL

Variants of: B1
Assay: raw area under fraction-flipped curve 0-4 h after induction (AUC4h, not background-subtracted), DNA-recorder readout of cleavage of the substrate (dimensionless); higher = more cleavage of the substrate by the protease variant
Settings: temperature: 34 °C; time window: 0-4 h after rhamnose induction
Description: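 In vivo DNA recorder in E. coli TOP10(DE3) ΔrhaA at 34 °C. Each TEVp single-site mutant (parent TEVp 0) is paired with a single-site variant of the 7-mer TEVs (canonical ENLYFQ|S). The substrate sits between flexible linkers in a Bxb1-sfGFP-TEVs-SsrA fusion, so cleavage stabilises Bxb1 and speeds flipping of a recombination array, read by NGS. The value is the raw area under the fraction-flipped curve over 0-4 h after rhamnose induction (AUC4h), with ≥20 reads per time point. It is not background-subtracted; inactive controls average about 0.047.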
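Further: Bxb1 expression induced with 0.2% (w/v) L-rhamnose at OD600 near 0.5, cultures sampled hourly, flipped fraction per protease–substrate barcode pair counted by paired-end Illumina sequencing.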

Variant	area with substrate ENLYFAS	area with substrate ENLYFCS	area with substrate ENLYFES	area with substrate ENLYFFS	area with substrate ENLYFHS	area with substrate ENLYFKS	area with substrate ENLYFLS	area with substrate ENLYFMS	area with substrate ENLYFPS	area with substrate ENLYFRS	area with substrate ENLYFWS	area with substrate ENLYFDS	area with substrate ENLYFIS	area with substrate ENLYFSS	area with substrate ENLYFTS	area with substrate ENLYFVS	area with substrate ENLYFYS	area with substrate ENLYFGS	area with substrate ENLYFNS
S26H	0.046	0.0567	0.0403	0.067	0.0644	0.0581	0.0752	0.0547	0.0646	0.0501	0.0516	–	–	–	–	–	–	–	–
L22P	0.0451	0.0423	0.0487	–	–	0.0608	0.0435	0.0408	0.0438	0.056	0.0322	0.064	0.0459	0.023	0.0424	0.0434	0.0316	–	–
L22E	0.0442	–	0.049	0.0474	0.0386	0.0606	–	0.0429	0.0495	–	0.0439	–	0.0476	0.0569	0.037	0.037	0.0408	0.0345	0.0442
L22I	0.0398	0.0631	0.0665	0.0495	0.0573	0.0501	0.0601	0.0624	0.0642	0.0612	0.0512	–	0.0578	0.0548	0.0553	–	–	–	0.0574
P9F	0.0588	0.0545	0.0588	0.0782	0.059	–	0.061	0.0705	0.0596	–	0.0545	–	0.0653	0.055	0.0631	0.0611	0.0617	–	0.0646
P9L	0.0446	0.0693	0.0567	0.0595	–	0.0581	–	0.074	0.053	0.0501	0.0499	0.0517	0.0542	–	–	0.0487	0.0792	–	0.0774
C20N	0.0442	0.0573	0.0457	0.0602	0.0525	0.0434	0.0483	0.0521	0.057	–	0.0382	0.0473	0.0468	0.0543	0.0585	0.0441	0.0391	0.0702	–
C20Q	0.041	–	0.0499	0.0465	0.0442	–	–	–	0.0569	0.0479	–	0.0434	–	0.0481	0.0463	–	0.049	0.0528	–
N24E	0.0605	0.0573	0.0712	0.0875	–	0.0628	0.0577	0.0644	0.0583	0.0598	0.0676	–	0.0509	0.0557	0.0616	–	0.0596	0.0513	0.0585
I19P	0.0406	0.0396	0.0517	0.0514	–	0.0532	0.0446	0.0432	0.0465	0.0549	0.045	0.044	0.0414	0.0487	0.0503	0.0483	0.0411	0.0472	0.0342
I19Y	0.0514	0.0545	0.0168	0.059	–	0.0549	–	0.0517	0.0579	0.0646	0.0728	0.0478	0.0544	–	0.0389	0.0457	–	0.0584	0.0356
D27C	0.0559	0.0532	0.0584	0.0606	–	0.0466	0.0559	0.0598	0.052	0.0582	0.042	0.0639	0.0561	0.0676	0.0311	0.0109	0.055	0.0607	0.0614

Reference: the supplement of paper PMC12217912
